Whole data set: some 5,400 compounds, median “IFI” near 2, cut for the highest 2% near 22. Some of the results follow.
assay: NOVARTIS: Inhibition Frequency Index (IFI) - the number of HTS assays where a compound showed > 50% inhibition/induction, expressed as a percentage of the number of assays in which the compound was tested.; assay type: functional

Q: For `C=C[C@H]1CN2CC[C@H]1C[C@H]2[C@H](OC(=O)c1cccc([N+](=O)[O-])c1)c1ccnc2ccccc12`, which IFI is on record?
A: 0.926%

Q: With `Cc1cc(N(C)C)cc(C)[n+]1OC(=O)N(c1ccccc1)c1ccccc1` as the compound, how does the IFI read?
A: 16.7%

Q: With `COc1cc[n+](OC(=O)N2CCCCC2)c(C)c1` as the compound, how does the IFI read?
A: 0%

Q: For `CC1=C[C@H]2O[C@@H]3C[C@H]4OC(=O)C=CC=C[C@H]([C@@H](C)O)OCC[C@@H](C)[C@H](O)C(=O)OC[C@@]2(CC1)[C@]4(C)[C@@]31CO1`, which IFI is on record?
A: 24.5%

Q: With `C=CC(C)(CCC=C(C)C)c1ccc2c3c(c[nH]c13)CC(CO)NC(=O)C(C(C)C)N2C` (stereo not drawn) as the compound, how does the IFI read?
A: 11.3%

Q: For `CC[C@@H]1CN2CC[C@H]1C[C@H]2[C@H](O)c1ccnc2ccc(OC)cc12`, which IFI is on record?
A: 1.32%

Q: For `COc1ccc(NC2=C(N3CCCCC3)C(=O)c3ccccc3C2=O)cc1`, which IFI is on record?
A: 18.7%

Q: With `C=CCN1C(=O)/C(=C\c2cc(Cl)c(O)c(OC)c2)C(=O)NC1=S` as the compound, how does the IFI read?
A: 7.69%

Q: For `C=C[C@H]1CN2CC[C@H]1C[C@@H]2[C@@H](OC(=O)c1cccs1)c1ccnc2ccccc12`, which IFI is on record?
A: 2.78%

Q: With `COc1ccccc1-n1c(/C=C/c2cc(Br)ccc2O)nc2ccccc2c1=O` as the compound, how does the IFI read?
A: 8.06%

Q: For `CC1(C)CN=C(NCc2ccccc2Cl)S1`, which IFI is on record?
A: 0%

Q: With `C=C[C@H]1CN2CC[C@H]1C[C@@H]2[C@@H](OC(=O)c1ccc(OC)cc1)c1ccnc2ccccc12` as the compound, how does the IFI read?
A: 3%

Q: For `C=CC1(O)CN2CCC1CC2[C@@H](O)c1ccnc2ccc(OC)cc12` (stereo partly drawn), which IFI is on record?
A: 3.57%

Q: With `CCN(CC)S(=O)(=O)c1ccc(C(=O)c2c(C)c(C(=O)C(F)(F)F)c3ccccn23)cc1` as the compound, how does the IFI read?
A: 3.12%

Q: For `C=CC1CN2CCC1CC2C(O)c1ccnc2ccccc12` (stereo not drawn), which IFI is on record?
A: 0.781%

Q: With `O=C(c1ccc([N+](=O)[O-])o1)N1CCN(c2cccc(Cl)c2)CC1` as the compound, how does the IFI read?
A: 4.71%

Q: For `CC(=O)N(C1=C(N(C)C)C(=O)c2ccccc2C1=O)c1ccc(F)c(F)c1`, which IFI is on record?
A: 23.1%

Q: With `CC(=O)N(C1=C(N(C)C)C(=O)c2ccccc2C1=O)c1ccc(Cl)cc1` as the compound, how does the IFI read?
A: 0%

Q: With `CCOc1ccc2nccc([C@@H](O)[C@@H]3C[C@@H]4CCN3C[C@@H]4CC)c2c1` as the compound, how does the IFI read?
A: 3.82%

Q: With `CC[C@H]1CN2CCc3cc(OC)c(OC)cc3[C@@H]2C[C@@H]1C[C@@H]1NCCc2cc(OC)c(OC)cc21` as the compound, how does the IFI read?
A: 37%

Q: For `CN1CCc2cc3c(c4c2C1Cc1ccccc1-4)OCO3` (stereo not drawn), which IFI is on record?
A: 6.17%

Q: For `C/C=C1/C[C@H]2[C@@H](OC)Nc3cc(O)c(OC)cc3C(=O)N2C1`, which IFI is on record?
A: 28.6%

Q: With `CC[C@H]1CN2CC[C@H]1C[C@H]2[C@H](O)c1ccnc2ccccc12` as the compound, how does the IFI read?
A: 5.17%

Q: With `CCSc1nc2sc3c(c2c(=O)n1-c1ccccc1)CCN(Cc1ccccc1)C3` as the compound, how does the IFI read?
A: 2.84%

Q: For `c1ccc2c(c1)ccc[n+]2CCCCCC[n+]1cccc2ccccc21`, which IFI is on record?
A: 0%

Q: With `CC1CCC2C(C)C(=O)OC3OC(C)C4CC1C32OO4` (stereo not drawn) as the compound, how does the IFI read?
A: 7.14%

Q: With `CCN1CCC(N2CCC(n3c(Cc4ccccc4OC)nc4cc(F)ccc43)CC2)CC1` as the compound, how does the IFI read?
A: 1.7%

Q: With `COc1ccc(C(Cc2ccccc2)NC2CN3CCC2CC3)cc1` (stereo not drawn) as the compound, how does the IFI read?
A: 0%

Q: Which IFI does the source give for `CCC1CN2CCC1CC2C(O)c1ccnc2ccccc12` (stereo not drawn) here?
A: 0%

Q: With `COc1ccc(-c2ccc(C=C3C(=O)NC(=S)NC3=O)o2)cc1Cl` as the compound, how does the IFI read?
A: 7.14%

Q: Which IFI does the source give for `CCN1CCN(c2c(Cl)cccc2NC(=O)C(Cl)(Cl)Cl)CC1` here?
A: 0%

Q: For `CC1=CC[C@@H](/C(C)=C/c2csc(C)n2)OC(=O)C[C@H](O)C(C)(C)C(=O)[C@H](C)[C@@H](O)[C@@H](C)CCC1`, which IFI is on record?
A: 5.66%

Q: With `NC(=N[N+](=O)[O-])Nc1ccc(NC(=O)Nc2ccc(Cl)cc2)cc1` as the compound, how does the IFI read?
A: 2.86%

Q: For `CN1CCN(c2nc(Cl)nc3[nH]cnc23)CC1`, which IFI is on record?
A: 0.699%

Q: For `CCCCCCc1cc(O)c2c(c1)OC(C)(C)C1=C2CCN(C)C1`, which IFI is on record?
A: 5.77%

Q: Which IFI does the source give for `NC(=O)Oc1ccc(Cc2ccccc2)cc1` here?
A: 0%

Q: With `Cc1ccn2c(NC(C)(C)CC(C)(C)C)c(-c3ccccc3OC(=O)N(C)C)nc2c1` as the compound, how does the IFI read?
A: 4.72%

Q: Which IFI does the source give for `O[C@@]1(c2cc3ccccc3s2)CN2CCC1CC2` here?
A: 1.63%

Q: Which IFI does the source give for `C[C@H]1C[C@H](C)C(=O)[C@@H]([C@@H](O)CC2CC(=O)NC(=O)C2)C1` here?
A: 23.9%

Q: For `O=c1c2ccccc2nc(/C=C/c2ccc([N+](=O)[O-])o2)n1-c1ccc(Br)cc1`, which IFI is on record?
A: 0%

Q: For `NC(=O)Cc1ccccc1`, which IFI is on record?
A: 2.04%

Q: For `CCC1CC2CCC(O2)C(C)C(=O)OC(C)CC2CCC(O2)C(C)C(=O)OC(CC)CC2CCC(O2)C(C)C(=O)OC(C)CC2CCC(O2)C(C)C(=O)O1` (stereo not drawn), which IFI is on record?
A: 24.1%

Q: With `c1ccc(C2=NN(c3ccccc3)N(c3ccccc3)N2)cc1` as the compound, how does the IFI read?
A: 9.09%

Q: For `CN(C)C(=O)O[n+]1ccc(N(C)C)cc1`, which IFI is on record?
A: 0%

Q: For `O=C1C=C(Nc2cccc(C(F)(F)F)c2)C(=O)c2ccccc21`, which IFI is on record?
A: 7.04%

Q: Which IFI does the source give for `COc1ccc2c(c1)CC1c3c(cc4c(c3-2)OCO4)CCN1C` (stereo not drawn) here?
A: 25%

Q: Which IFI does the source give for `C=CC1CN2CCC1CC2[C@@H](OC(=O)c1ccc(C(C)(C)C)cc1)c1ccnc2ccc(OC)cc12` (stereo partly drawn) here?
A: 0%

Q: With `CCOC(=O)CN(N=O)C1=C(N2CC2)C(=O)c2ccccc2C1=O` as the compound, how does the IFI read?
A: 30.8%

Q: Which IFI does the source give for `C=CC1CN2CCC1CC2[C@@H](OC(=O)c1cc([N+](=O)[O-])cc([N+](=O)[O-])c1)c1ccnc2ccc(OC)cc12` (stereo partly drawn) here?
A: 0%

Q: With `c1ccc(CCNC2CCN(Cc3ccccc3)CC2)cc1` as the compound, how does the IFI read?
A: 0%

Q: For `C=CC1CN2CCC1CC2[C@@H](OC(=O)/C=C/c1ccc(Cl)cc1)c1ccnc2ccc(OC)cc12` (stereo partly drawn), which IFI is on record?
A: 0%

Q: Which IFI does the source give for `COc1ccc(C=NNc2ccnc3cc(Cl)ccc23)cc1` here?
A: 4.8%

Q: Which IFI does the source give for `CCOc1c(Cl)cc(CNC(C)C(O)c2ccccc2)cc1OC` (stereo not drawn) here?
A: 0%
